Data taken from PubChem BioAssay AID2675 (National Center for Advancing Translational Sciences (NCATS), 2010).
Screen size: about 280,000 compounds; about 100 (0.036%) were called active. Inconclusive results, whose numbers are uncertain, are shown with a selection of clear calls. Calls follow the shape of the dose curve; as a rule, active = well fitted inhibition curve with a large enough effect in the signal ratio, with a control signal flat (not every such curve was filed as active); inconclusive = small, poorly fitted or top-dose-only effect, or effect the other way, or a change in a side signal; inactive = no such curve, though single readings can be large or run the other way; the % refers to the signal ratio. Potencies beside an inconclusive call are fits to weak or partial responses and may not hold up. A note “side channel” means that the fit belongs to a control or component signal, not to the main read-out.

What follows are compounds tested against Muscleblind-like protein 1 (Homo sapiens) (UniProt Q9NR56) (assay: qHTS Assay for Inhibitors of MBNL1-poly(CUG) RNA binding). Details: TR-FRET MBNL1-His/biotin-(CUG)12 binding, 665/545 ratio; series mostly up to 57.5 µM.
Chain of UniProt Q9NR56 (Q9NR56 whole entry, looked up): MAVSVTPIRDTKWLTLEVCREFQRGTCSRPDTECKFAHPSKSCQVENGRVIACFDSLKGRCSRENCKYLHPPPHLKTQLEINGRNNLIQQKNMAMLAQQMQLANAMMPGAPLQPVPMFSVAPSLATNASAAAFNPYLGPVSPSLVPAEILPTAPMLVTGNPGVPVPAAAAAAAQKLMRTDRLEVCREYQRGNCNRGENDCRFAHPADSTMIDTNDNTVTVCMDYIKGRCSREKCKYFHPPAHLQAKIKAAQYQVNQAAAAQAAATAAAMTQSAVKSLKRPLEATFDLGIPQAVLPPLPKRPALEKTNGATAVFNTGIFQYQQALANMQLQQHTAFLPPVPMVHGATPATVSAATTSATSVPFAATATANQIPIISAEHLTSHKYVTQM
Method in brief: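 Ratiometric TR-FRET (665 over 545 nm, excitation 340 nm) tracks disruption of MBNL1-His/biotin-(CUG)12 complex after 60 min at room temperature, with compounds at 92 nM to 58 uM final.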
Potency is read from the fitted curve at half-maximal effect; tags tell the direction and shape of the fitted curve or compound fluorescence and quenching.

Row | SMILES | Potency
1 | COc1ccccc1C(=O)/C=C/c1ccc(N2CCCCC2)c([N+](=O)[O-])c1 | inactive
2 | COc1ccc(NC(=O)c2cc(C(=O)Nc3ccc(OC)cc3OC)cc([N+](=O)[O-])c2)c(OC)c1 | inconclusive: 28.2 µM [quencher, side channel, partial curve]
3 | C/C(Cc1ccccc1)=N\NC(=O)CNC(=O)c1ccccc1F | inactive
4 | Cc1cnnc2ccc3c(no[n+]3[O-])c12 | inconclusive: 10 µM [quencher, side channel, partial curve]
5 | Cc1cccn2cc(CCNS(=O)(=O)c3ccc([N+](=O)[O-])cc3)nc12 | inconclusive: 11.2 µM [quencher, side channel, partial curve]
6 | CCn1cc(C(=O)N2CCN(c3ccccc3F)CC2)c(=O)c2ccc(C)nc21 | inactive
7 | O=C(O)CNc1nc(Cl)ccc1[N+](=O)[O-] | inconclusive: 15.8 µM [quencher, side channel, partial curve]
8 | Cc1ccccc1OCC(O)CN1CCN(C)CC1 (configuration not stated) | inactive
9 | COc1cc2c(cc1OC)C(c1ccc([N+](=O)[O-])cc1)NCC2 (configuration not stated) | inconclusive: 20 µM [quencher, partial curve]
10 | O=C(C1=C(O)C(=O)N(Cc2cccnc2)C1c1ccccn1)c1cccs1 (configuration not stated) | inconclusive: 31.6 µM [quencher, side channel, single point]
11 | Cc1cc(C)nc(SCc2cc(=O)c(OC(=O)c3ccc(S(=O)(=O)N(C)C)cc3)co2)n1 | inactive
12 | CCN(CC)CCCN1C(=O)CSC1c1ccc([N+](=O)[O-])cc1 (configuration not stated) | inconclusive: 20 µM [quencher, side channel, partial curve]
13 | Cc1ccc2[nH]c(=O)c(C(c3nnnn3Cc3ccccc3)N3CCc4ccccc43)cc2c1 (configuration not stated) | inconclusive: 11.2 µM [quencher, side channel, partial curve]
14 | O=C1NC(Cc2ccccc2)C(=O)N1Cc1cc([N+](=O)[O-])cc2c1OCOC2 (configuration not stated) | inconclusive: 25.1 µM [quencher, side channel, partial curve]
15 | CCCN(CCC)CCCNC(=O)C1CCN(S(=O)(=O)c2cccc3nsnc23)CC1 | inconclusive: 12.6 µM [quencher, side channel, partial curve]
16 | O=C(NCCCc1ccccc1)c1cnc2n(c1=O)CCS2 | inconclusive: 6.31 µM [quencher, side channel, full curve, poor fit]
17 | O=C1Nc2ccc([N+](=O)[O-])cc2C1=Nc1cccc(CO)c1 | inconclusive: 25.1 µM [quencher, side channel, single point]
